Data taken from PubChem BioAssay AID1508623 (National Center for Advancing Translational Sciences (NCATS), 2021).
About 450 (0.94%) of roughly 48,000 compounds were called active. Inconclusive results (about 19%) are left out. Calls follow the shape of the dose curve; as a rule, active = well fitted inhibition curve with a large enough effect; inconclusive = small, poorly fitted or top-dose-only effect; inactive = no such curve, though single readings can be large or run the other way. This is one part of the list.

assay: Primary qHTS for Identification of Small Molecule Inhibitors of Huntingtin Promoter Activity; conditions: HEK293 HTT promoter firefly luciferase reporter (activity 0% = vehicle and -100% = no light), 24 h; series mostly up to 57.5 µM; activity change, negative = inhibition: at the top concentration; also: nearly all actives have a fitted effect of over 50% in size
Summary of the method: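 HEK293 luciferase promoter-reporter cells (2,500/well) plated 24 h, then compounds added at up to 57.5 uM final for 24 h at 37 °C. Firefly luminescence by Dual-Glo, normalized to vehicle (0%) and zero RLU (-100%).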

SMILES	activity change, negative = inhibition
CCOC(=O)c1cnc2ccc(OC(F)(F)F)cc2c1Nc1ccccc1C(=O)O	inactive: -7.54%
Cc1ccc(NC(=O)CCCN2C(=O)COc3ccc(C)cc32)c(Cl)c1	inactive: 5.64%
COc1cccc(/C=C/c2nc(C#N)c(N3CCCCCC3)o2)c1	inactive: -9.67%
CCOC(=O)c1cnn2c(C(F)(F)F)cc(-c3ccc(Br)cc3)nc12	inactive: -6.97%
O=C(Nc1ccc(OCc2cc(=O)n3c4c(sc3n2)CCCC4)cc1)c1ccc(F)cc1	inactive: -19.6%
COC(=O)Cc1c(C)c2ccc3c(c2oc1=O)CN(Cc1ccc(C)cc1)CO3	inactive: -5.8%
COc1ccc(-n2nnnc2SCC(=O)NCCc2ccccc2)cc1	inactive: -3.84%
CCOc1ccc(CCNC(=O)CCn2c(=O)c3cccn3c3ccc(F)cc32)cc1	inactive: -8.8%
Cc1ccc(NC(=O)Cn2nc(C(F)(F)F)c3c2CCC3)cc1C	inactive: -28.7%
CCOc1ccc(C(=O)NCCc2sc(-c3cccc(F)c3)nc2C)cc1OCC	inactive: -32.6%
Cc1ccc(C2=NN(CCC(=O)NCCc3cccc(C)c3)C(=O)CC2)cc1	inactive: -18.7%
CC(=O)Nc1cccc(-c2nnc(SCC(=O)c3ccc([N+](=O)[O-])cc3)o2)c1	inactive: -24.1%
COc1ccc(OC)c(CNC(=O)c2cnc(N(C)C)nc2)c1	inactive: -13.8%
CCOc1ccccc1/C=C/c1onc(C)c1S(=O)(=O)N1CCC(C(=O)N2CCCCC2)CC1	inactive: -11.8%
Cc1ccc(-n2nc(C)c3c(C(=O)Nc4ccc(C)cc4Cl)cc(C)nc32)cc1	inactive: -5.41%
CCOC(=O)CSc1nc(-c2ccc(OC)cc2)cc(C(F)(F)F)c1C#N	inactive: -17.2%
COc1ccc(-n2nc(C(=O)N3CCN(c4cccc(C)c4)C(C)C3)c3c4ccccc4n(C)c3c2=O)cc1Cl (configuration not stated)	inactive: -9.89%
COc1cccc(-n2c(=O)c3c4c(sc3n(Cc3ccccc3C#N)c2=O)CCCC4)c1	inactive: 9.2%
Cc1ccccc1-c1noc(-c2ccc(NC3CCCC3)c([N+](=O)[O-])c2)n1	inactive: -6.83%
O=S(=O)(c1ccc2nc(Nc3ccc(Br)cc3F)ccc2c1)N1CCCC1	inactive: 3.9%
CCc1nnc(NC(=O)c2nc(SCc3ccc(F)cc3)ncc2Cl)s1	inactive: -16.2%
O=C(O)/C=C\C(=O)O	inactive: -2.15%
CCOc1ccc(OCC)c(NS(=O)(=O)c2ccc3c(c2)CCCN3C(C)=O)c1	inactive: -21.3%
CCCCn1c(C2CC(=O)N(c3ccc(OCC)cc3)C2)nc2ccccc21 (configuration not stated)	inactive: -13.3%
O=C(OCC1CCCO1)c1ccc2c(c1)N(Cc1c(F)cccc1Cl)C(=O)c1ccccc1S2(=O)=O (configuration not stated)	inactive: -9.25%

SMILES	activity change, negative = inhibition
Cc1cc(C)c(NC(=O)c2ccc3nc(C(C)C)oc3c2)c(C)c1	inactive: -24.4%
COCC(C)NC(=O)C1=CC(c2ccc3c(c2)OCO3)=NS(=O)(=O)N1C (configuration not stated)	inactive: -18.2%
CCC(C(=O)NC1CCCCC1)n1nc(C)c2sc3ccccc3c2c1=O (configuration not stated)	inactive: -6.04%
Cc1ccc(Cl)cc1N1CCN(C(=O)c2cnc3c(-c4ccc(F)cc4)c(C)nn3c2C)CC1	inactive: -9.12%
O=C(Cn1cc(SCc2ccc(F)cc2)c2ccccc21)N1CCCC1	inactive: 15.7%
CCN(CC)S(=O)(=O)c1ccc2c(c1)c(=O)c(C(=O)N1CCN(c3cc(C)ccc3C)CC1)cn2C	inactive: -20.1%
Cc1cccc(-c2nc(S(=O)(=O)c3ccccc3)c(N3CCN(c4ccccc4)CC3)o2)c1	inactive: 1.53%
CSc1ccc(-c2nc3cc(C)ccn3c2Nc2ccc(C)cc2)cc1	inactive: 17.9%
CCc1ccc(NC(=O)C(=O)NCCc2sc(-c3ccc(C)cc3)nc2C)cc1	inactive: -9.28%
Cn1ccc2c(OCC(=O)NCc3ccc(F)cc3)cccc2c1=O	inactive: -16.5%
COc1c(Cl)cc(Cl)cc1C(=O)Nc1cccc2cccnc12	inactive: -11.6%
Cc1ccc(C(=O)c2cn(Cc3ccccc3)c3cc4c(cc3c2=O)OCCO4)cc1	inactive: 5.11%
CCc1cccc(NC(=O)CSc2nccn2C)c1	inactive: 4.1%
CCOC(=O)c1cc(S(=O)(=O)Nc2cc(C)c(Cl)cc2OC)[nH]n1	inactive: -16.2%
CC(=O)c1ccc(NC(=O)CSc2nnc(NC(=O)NC3CCCCC3)s2)cc1	inactive: 17.4%
Cc1cccc(Cn2c(CNC(=O)c3ccccc3)nc3ccccc32)c1	inactive: -21.5%
CC(C)OCCCNC(=O)c1c2c(nc3ccccc13)C(=O)N(C1CCCCC1)C2	inactive: -8.19%
Cc1ccn2c(Nc3ccc(C(C)C)cc3)c(-c3ccsc3)nc2c1	inactive: 0.559%
CCOC(=O)c1cc(-c2ccccc2)n(CC(=O)Nc2cc(Cl)c(OC)cc2OC)c1C	inactive: 2.1%
CCCCCOc1ccccc1Cn1c(=O)oc2ccc(C)cc21	inactive: -6.21%
Cc1nn(C(C)C(=O)Nc2cccc(F)c2)c(=O)c2c1sc1ccccc12 (configuration not stated)	inactive: -21%
Cc1ccc(Nc2c(-c3ccc(N4CCOCC4)cc3)nc3ncccn23)c(C)c1	inactive: -10.5%
COCCNC(=O)CCSc1nc(-c2ccc(OC)cc2)cc(C(F)(F)F)n1	inactive: -20%
CC1CCCN(Cc2c(O)ccc3c(=O)c(-c4ccccc4Cl)c(C(F)(F)F)oc23)C1 (configuration not stated)	inactive: -7.88%
Cc1ccccc1C(OCCN(C)C)c1ccccc1 (configuration not stated)	inactive

SMILES	activity change, negative = inhibition
Cc1cc(C)c(NS(=O)(=O)c2ccc3c(c2)NC(=O)CCS3)c(C)c1	inactive: -26.1%
Cc1c(I)c(=O)n(-c2ccccc2)n1C	inactive: -5.62%
O=C(COc1ccc(Cl)cc1)N(Cc1ccco1)c1ccccn1	inactive: -9.16%
O=C(CSc1oc(-c2ccco2)nc1S(=O)(=O)c1ccc(Br)cc1)c1ccccc1	inactive: -19.5%
CCC(=O)C1=C(c2ccc(Cl)cc2)N(C(=O)CC)n2c(C)nnc2S1	inactive: -23.2%
CCCCn1c(=O)c2oc3ccccc3c2n(Cc2cccc(F)c2)c1=O	inactive: -8.96%
CCC(C)Cn1c(/C=C/c2ccccc2)nc2ccccc21 (configuration not stated)	inactive: -21.5%
CCOC(=O)c1cccc(NC(=O)c2cc3c(=O)n(C)c4ccccc4c3n2C)c1	inactive: 0.697%
Cc1ccc(CNC(=O)CCN2C(=O)COc3ccc(C)cc32)cc1	inactive: -9.4%
Cc1ccc(NC2=C(CC(=O)O)C(c3ccc(F)cc3)N(c3ccc(C)cc3)C2=O)cc1 (configuration not stated)	inactive: 26.6%
CCN(CC)CCOC(=O)c1ccc(NC(=O)c2nn(C)c3c2COc2ccccc2-3)cc1	inactive: 29.6%
Cc1cncc2cccc(S(=O)(=O)N3CCCN(C(=O)CN)C[C@@H]3C)c12	inactive: -12.9%
CC(C)c1cnc2c(c1SCC(=O)Nc1ccc(OC(F)(F)F)cc1)c(=O)n(C)c(=O)n2C	inactive: -12.4%
O=C(CCCN1C(=O)c2cccnc2Oc2ccc(Cl)cc21)NCc1ccccc1F	inactive: -8.64%
CCc1ccc(N2CCn3c2nc2c3c(=O)n(C/C=C/c3ccccc3)c(=O)n2C)cc1	inactive: -1.93%
COc1ccc(NC(=O)c2c(NCc3ccc(N(C)C)cc3)sc3c2CCC3)cc1	inactive: -1.94%
Cc1ccc(Nc2ncc(C(=O)N3CCN(c4ccc(F)cc4)CC3)c3ccccc23)cc1Cl	inactive: -27.9%
CCOc1ccc(-c2nonc2NC(=O)c2oc3cc(C)c(C)cc3c2C)cc1OCC	inactive: -21.3%
Cc1ccc(C)c(-n2c3nc(=O)[nH]c(=O)c-3cc3c(C)nn(-c4ccccc4)c32)c1	inactive: -13.2%
COc1cccc(CNS(=O)(=O)c2cc3[nH]c(=O)c(=O)[nH]c3cc2C)c1	inactive: 1.23%
CCc1ccc2oc(C(=O)Nc3c(C)n(C)n(-c4ccccc4)c3=O)cc(=O)c2c1	inactive: -14.1% [at 11.5 µM]
Cc1ccccc1Cn1c2ccccc2c2cnn(CC(=O)NC(C)CCc3ccccc3)c(=O)c21 (configuration not stated)	inactive: 1.72%
CCOC(=O)c1ccc(N2C(=O)c3n[nH]c(C)c3C2c2ccccc2OC)cc1 (configuration not stated)	inactive: -9.92%
N#Cc1ccc(C(=O)NCc2ccc3c(c2)CCN3C(=O)c2ccc(F)cc2)cc1	inactive: -3.63%
Cc1cccc(Cn2nc(C)n3c(cc4cc(C)ccc43)c2=O)c1	inactive: -2.68%

SMILES	activity change, negative = inhibition
Cc1ccc(C)c(N2CCN(c3ccc4cc(S(=O)(=O)N5CCC(C)CC5)ccc4n3)CC2)c1	inactive: -8.65%
CCOc1ccc(C(=O)NCCc2sc(-c3ccc(OC)c(OC)c3)nc2C)cc1	inactive: 0.097%
Cc1ccccc1OCC(=O)Nc1sc2c(c1C(=O)OC(C)C)CCCC2	inactive: -1.56%
CCOc1ccc(-n2c(SCC(=O)N3CCC(C)CC3)nc3c([nH]c4ccccc43)c2=O)cc1	inactive: -7.31%
CCCOc1ccc(C(=O)Nc2cc3c(cc2N2CCOCC2)n(C)c(=O)n3C)cc1	inactive: 0.0622%
Cc1cccc(-n2c(=O)c3c(c4cc(C)ccc4n3C)n(CC(=O)NCC3CCCO3)c2=O)c1 (configuration not stated)	inactive: -12.4%
Cc1ccc2c(c1)c(=O)c1ccccc1n2CCCC(=O)Nc1cc(Cl)ccc1C	inactive: -24.4%
Cc1nn(CC(=O)O)c(=O)c2cc3cc(F)ccc3n12	inactive: 0.361%
COc1ccccc1NC(=O)c1cc(S(=O)(=O)N2CCN(c3ccccc3Cl)CC2)ccc1F	inactive: -7%
O=C(Nc1cc(Cl)cc(Cl)c1)c1ccc2c(c1)N(Cc1cccc(Cl)c1)C(=O)c1ccccc1S2=O (configuration not stated)	inactive: 16.7%
COC(=O)c1ccc(C2c3c(oc4ccccc4c3=O)C(=O)N2c2nc(C)c(C(=O)OC)s2)cc1 (configuration not stated)	inactive: -12.2% [at 11.5 µM]
COc1ccc2c(CNCc3cccs3)c(C(=O)O)n(Cc3ccc(C)cc3)c2c1	inactive: -16.5%
CN1CCN(c2c(F)cc3c(=O)c(C(=O)O)cn4c3c2SCC4)CC1	inactive: -7.12%
COc1ccc(NC(=O)Cn2c(=O)n(Cc3nc(-c4ccccc4)no3)c(=O)c3cc4c(cc32)OCO4)c(OC)c1	inactive: -8.66%
O=C(Nc1ccc2oc(-c3cccnc3)nc2c1)c1ccc(Br)cc1	inactive: -25.5%
Cc1nn(CC(=O)NCc2ccc(Cl)cc2)c(=O)c2cc3sccc3n12	inactive: -2.16%
Cc1ccc(CN2CCCn3nc(C(=O)NC(C)C)cc3C2=O)cc1	inactive: -3.67%
CC(=O)c1ccc(NC(=O)C2Cc3ccccc3N2C(=O)c2ccccc2)cc1 (configuration not stated)	inactive: -12.9%
CC(=O)Nc1nonc1-c1nnc(SCC(=O)Nc2cccc(F)c2)n1-c1ccccc1	inactive: -21.2%
COC(=O)c1scc(-c2ccc(C)cc2)c1S(=O)(=O)Nc1ccc(F)cc1F	inactive: -25.7%
COc1ccc(C)cc1NC(=O)Cn1c(=O)c(C(F)(F)F)nc2ccccc21	inactive: -6.67%
CN(C)S(=O)(=O)c1ccc2c(c1)N(CC(=O)NCc1ccc(F)cc1)C(=O)CS2	inactive: -1.67%
